Test results: PubChem BioAssay AID488969 (Vanderbilt High Throughput Screening Facility, 2010)
The full ranking holds about 110,000 compounds; the median of “z-score” is about -0.1, and the highest 2% start at about 2. The list shows a part of the results.

biological target: Metabotropic glutamate receptor 8 (Rattus norvegicus) (UniProt P70579); assay: rat mGluR8 modulators via GIRK flux, primary screen, cell-based, thallium flux, HTS (AID 488969); conditions: HEK293 rat mGluR8, GIRK (G protein-gated inwardly rectifying potassium channel) thallium flux, FluoZin2; at 10 µM; stronger effect = higher value; submaximal glutamate (EC20) added with thallium
Chain of UniProt P70579 (P70579 whole entry, looked up): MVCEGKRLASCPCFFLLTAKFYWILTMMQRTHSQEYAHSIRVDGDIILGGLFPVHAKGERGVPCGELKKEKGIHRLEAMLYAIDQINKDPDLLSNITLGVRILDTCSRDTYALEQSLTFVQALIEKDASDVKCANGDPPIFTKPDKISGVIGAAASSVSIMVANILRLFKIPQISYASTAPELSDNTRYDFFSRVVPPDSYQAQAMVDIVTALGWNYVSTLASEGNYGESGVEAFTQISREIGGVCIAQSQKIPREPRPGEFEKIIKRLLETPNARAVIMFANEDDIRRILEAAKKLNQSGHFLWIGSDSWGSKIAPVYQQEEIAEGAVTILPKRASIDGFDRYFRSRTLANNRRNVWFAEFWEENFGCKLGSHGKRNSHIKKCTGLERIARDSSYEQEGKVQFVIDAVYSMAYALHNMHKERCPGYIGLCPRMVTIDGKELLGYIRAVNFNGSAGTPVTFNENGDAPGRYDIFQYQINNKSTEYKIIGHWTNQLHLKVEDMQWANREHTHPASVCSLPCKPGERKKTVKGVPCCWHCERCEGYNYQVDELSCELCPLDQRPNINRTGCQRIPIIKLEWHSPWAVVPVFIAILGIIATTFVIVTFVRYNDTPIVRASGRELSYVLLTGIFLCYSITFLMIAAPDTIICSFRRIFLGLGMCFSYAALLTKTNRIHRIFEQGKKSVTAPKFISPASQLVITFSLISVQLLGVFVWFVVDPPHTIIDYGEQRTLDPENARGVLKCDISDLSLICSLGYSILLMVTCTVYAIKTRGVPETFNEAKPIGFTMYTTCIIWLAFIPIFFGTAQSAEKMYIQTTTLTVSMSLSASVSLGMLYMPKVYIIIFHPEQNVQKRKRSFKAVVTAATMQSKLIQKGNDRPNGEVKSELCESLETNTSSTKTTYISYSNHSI

Row | Structure (SMILES) | z-score
1 | O=C(O)COc1cccc2nsnc12 | 0.173
2 | CSc1ccc(Cl)c(C(=O)NCC(C)C)c1 | -0.0039
3 | COc1ccccc1OCCCCN1CCN(c2ccccc2OC)CC1 | 0.115
4 | Cc1ccc(-n2c(SCC(=O)OC(C)C)nnc2-c2ccncc2)cc1 | 0.194
5 | O=C(N/N=C\c1ccc(-c2ccc(Cl)c(Cl)c2)o1)C(=O)N1CCCC1 | -0.201
6 | CCCOc1ccc(C2c3c(oc4ccccc4c3=O)C(=O)N2CCCN2CCOCC2)cc1 (stereo not given) | 0.214
7 | COc1ccc(CNC(=O)COC(=O)CCC2CCCCC2)cc1 | -0.328
8 | Cc1ccc(SCC(=O)NCc2ccco2)cc1 | 0.0101
9 | O=C(c1cccnc1Nc1ccc2c(c1)CCC2)N1CCOCC1 | -0.224
10 | Cc1noc(C)c1COC(=O)C1CC(O)CN1S(=O)(=O)c1ccc(Cl)cc1 (stereo not given) | 0.202
11 | CS(=O)(=O)N1CCN(c2ccc(Cl)cc2[N+](=O)[O-])CC1 | -0.298
12 | CCCOCn1cc(F)c(=O)[nH]c1=O | -0.151
13 | CN(C)C=NC(=O)c1ccc(N2CCN(c3ncc(C(F)(F)F)cc3Cl)CC2)cc1 | -0.0254
14 | Cc1ccc(-c2csc3ncnc(-n4nnc5ccccc54)c23)cc1C | -0.0158
15 | COc1ccc(CCC(C(O)C(F)(F)F)S(=O)c2ccccc2)cc1 (stereo not given) | 0.411
16 | COc1ccc2c(c1)CCc1sc(NC(=O)c3ccc(C)cc3)nc1-2 | -0.118
17 | COc1ccc(C2=C(Nc3ccc(C)cc3)c3ccccc3C2=O)cc1 | 0.015
18 | N#CCC(=O)N/N=C/c1ccc(OS(=O)(=O)c2ccccc2)cc1 | -0.241
19 | C/C(CC(=O)NCCCN1CCOCC1)=N\NC(=O)COc1ccc(Cl)cc1 | -0.229
20 | COc1ccc(C(=O)Nc2ccc(-c3ccc(NC(=O)c4ccc(OC)cc4)c(OC)c3)cc2OC)cc1 | -0.282
21 | CCOC(=O)N1CCc2c(sc(NC(C)=O)c2C(N)=O)C1 | -0.232
22 | Nc1c(C(=O)Nc2nccs2)sc2nc(-c3cccs3)cc(C(F)(F)F)c12 | -0.132
23 | O=C(CC(C(=O)O)N1CCOCC1)Nc1ccc(Cl)cc1 (stereo not given) | -0.04
24 | S=c1[nH]nc(-c2ccccn2)n1/N=C/c1ccccc1 | -0.194

Row | Structure (SMILES) | z-score
25 | O=C(COC(=O)CCC1CCCC1)Nc1ccccc1Sc1ccccc1 | -0.2
26 | O=C(O)CC1S/C(=N/N=C/C=C/c2ccccc2[N+](=O)[O-])NC1=O (stereo not given) | 0.376
27 | O=C(COc1ccc(F)cc1)N1c2ccccc2CCc2ccccc21 | -0.509
28 | CN(C)S(=O)(=O)N1CCN(c2ccccc2Cl)CC1 | -0.243
29 | CNC(=O)C1CC(=O)N(Cc2ccc3c(c2)OCO3)C(=Nc2ccc(OC)cc2)S1 (stereo not given) | 0.941
30 | Cc1cc(OCC(=O)O/N=C(\N)c2ccccc2)ccc1Cl | -0.153
31 | COc1cccc(C(=O)NC(=S)Nc2ccc([N+](=O)[O-])cc2C)c1 | 1.79
32 | CCn1c(=O)cc(SCC(=O)NCCN2CCN(Cc3ccccc3)CC2)c2ccccc21 | 1.03
33 | CCC(C(=O)OC)n1cnc2c(cnn2-c2ccc(Cl)cc2)c1=O (stereo not given) | -0.896
34 | O=C(Nc1ncc([N+](=O)[O-])s1)C1CCN(S(=O)(=O)c2cnc[nH]2)CC1 | -0.0778
35 | Cc1cccc(C(=O)NC(=S)N2CCN(C)CC2)c1 | 0.0366
36 | COc1ccc(OC)c(C2=NOC(C(=O)Nc3ccccc3SC)C2)c1 (stereo not given) | -0.265
37 | Cc1ccc(NC=C(S(=O)(=O)c2ccccc2)S(=O)(=O)c2ccccc2)c(C)c1 | -0.184
38 | CCCCCCc1cc2cc(C(=O)Nc3ccc(OC)cc3)c(=O)oc2cc1O | -0.208
39 | CCCOP(=O)(OCCC)C(Nc1ccc(C(C)C)cc1)c1ccc([N+](=O)[O-])cc1 (stereo not given) | -0.13
40 | Cc1cc(N/N=C/c2ccccc2O)nc(-c2ccccc2O)n1 | -0.0434
41 | CCOC(=O)c1c(NC(=O)CSc2nnc(CNc3ccc(Cl)cc3)o2)sc(C)c1C | -0.783
42 | COCCCn1c(Cc2csc(Nc3ccccc3)n2)nnc1SCC(N)=O | 0.239
43 | COC(=O)CSc1ncnc2c1cnn2Cc1ccccc1 | -0.981
44 | O=C(Nc1ccccc1O)c1ccc(Cl)cc1 | -0.776
45 | COc1ccc(CNC(=O)CSc2nc(-c3ccccc3)cc(-c3cccs3)c2C#N)cc1 | -0.127
46 | COc1ccc(C(=O)OCC(=O)NC2CC2)cc1[N+](=O)[O-] | -0.202
47 | O=C(Nc1cccc(O)c1)c1ccccc1 | 0.409
48 | Cc1cc2nc(SCCOC(=O)Nc3ccc(Cl)cc3)nc(C)c2cc1C | -0.167

Row | Structure (SMILES) | z-score
49 | CC1CC2(CCCCC2)Nc2ccc3ccccc3c21 (stereo not given) | 0.162
50 | CC1Cc2ccccc2N1C(=O)c1ccc2c(c1)nnn2C (stereo not given) | 0.435
51 | O=C(O)CCc1c(C(=O)O)[nH]c2ccccc12 | 0.441
52 | CCOC(=O)C(C)Sc1nc2ccccc2c(=O)n1CC1CCCCC1 (stereo not given) | 1.59
53 | CCS(=O)(=O)NCCCCc1ccccc1 | -0.235
54 | Cn1nc(-c2ccccc2)c(COC(=O)c2cccc(Cl)c2)c1S(=O)(=O)c1ccccc1 | -0.139
55 | CCOc1cc(C(=O)OCC(=O)c2c(N)n(C)c(=O)n(C)c2=O)cc(OCC)c1OCC | -0.112
56 | O=C(NCC1CCCO1)c1cc(-c2ccc(Cl)cc2Cl)on1 (stereo not given) | 0.327
57 | Cc1ccc(C(=O)Nc2ccc(S(=O)(=O)N3CCc4ccccc43)cc2)o1 | -0.238
58 | CCOc1cc(C(=O)Nc2ccccc2N2CCN(S(C)(=O)=O)CC2)cc(OCC)c1OCC | -0.578
59 | COCCn1c(C)cc(C(=O)CSc2ncn[nH]2)c1C | 1.14
60 | O=C(N/N=C/c1ccc(-c2cccc([N+](=O)[O-])c2)o1)[C@H]1C[C@@H]1c1ccccc1 | 0.169
61 | COc1ccc(/C=N/Nc2nonc2N)cc1 | -0.315
62 | COc1ccc(OC)c2[nH]c(=O)c(CCNC(=O)COc3ccccc3)cc12 | 0.555
63 | CCOc1ccc(S(=O)(=O)N(C)C)cc1-c1nc2c(C(C)(C)C)nn(C)c2c(=O)[nH]1 | 0.117
64 | CCOC(=O)c1cc(-c2ccc(C#N)cc2)nc2c1c(C)nn2CCC#N | -0.234
65 | O=C(CSc1nc2ccccc2c(=O)n1-c1ccc(F)cc1F)Nc1ccc2c(c1)CCC2 | 0.245
66 | CC(=O)NCCOc1c(C)cc(S(N)(=O)=O)cc1C | -0.603
67 | Oc1[nH]c2ccc(Br)cc2c1N=Nc1ccc(C(F)(F)F)cn1 | 0.607
68 | CCOC(=O)C(NC(C)=O)(Nc1cccc(F)c1)C(F)(F)F (stereo not given) | 0.213
69 | CN(C)c1ccc(N/C=C/C(=O)c2ccc(F)cc2)cc1 | -0.276
70 | CC(C)(Oc1ccc(Cl)cc1)C(=O)NCc1ccco1 | -0.211
